Data: the supplement of paper PMC8728848
The other results are listed elsewhere or left out.

Assays:
Test in all cases: glycan array binding signal (z-score within array); higher = stronger binding
Conditions in all cases: glycan notation: IUPAC condensed, linker removed
[1] = molecular target: Fuc(a1-2)[GalNAc(a1-3)]Gal(b1-3)GalNAc(a1-3)[Fuc(a1-2)]Gal(b1-4)GlcNAc
Method in brief: (§1)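 The Consortium for Functional Glycomics database supplied 3228 glycan arrays, of which those lacking an available protein sequence were dropped. The binding signal, a within-array Z-score, was averaged across arrays of the same protein sequence and across linkers. Negative scores can be read as non-binding.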

[2] = molecular target: Fuc(a1-2)[GalNAc(a1-3)]Gal(b1-3)GalNAc(b1-3)Gal(a1-4)Gal(b1-4)Glc
Method in brief: as §1

[3] = molecular target: Fuc(a1-2)[GalNAc(a1-3)]Gal(b1-3)GlcNAc
Method in brief: as §1

[4] = molecular target: Fuc(a1-2)[GalNAc(a1-3)]Gal(b1-3)GlcNAc(b1-2)Man(a1-3)[Fuc(a1-2)[GalNAc(a1-3)]Gal(b1-3)GlcNAc(b1-2)Man(a1-6)]Man(b1-4)GlcNAc(b1-4)GlcNAc
Method in brief: as §1

[5] = molecular target: Fuc(a1-2)[GalNAc(a1-3)]Gal(b1-3)GlcNAc(b1-2)Man(a1-3)[Fuc(a1-2)[GalNAc(a1-3)]Gal(b1-3)GlcNAc(b1-2)Man(a1-6)]Man(b1-4)GlcNAc(b1-4)[Fuc(a1-6)]GlcNAc
Method in brief: as §1

[6] = molecular target: Fuc(a1-2)[GalNAc(a1-3)]Gal(b1-3)GlcNAc(b1-3)GalNAc
Method in brief: as §1

[7] = molecular target: Fuc(a1-2)[GalNAc(a1-3)]Gal(b1-3)GlcNAc(b1-6)GalNAc
Method in brief: as §1

[8] = molecular target: Fuc(a1-2)[GalNAc(a1-3)]Gal(b1-4)Glc
Method in brief: as §1

[9] = molecular target: Fuc(a1-2)[GalNAc(a1-3)]Gal(b1-4)GlcNAc
Method in brief: as §1

[10] = molecular target: Fuc(a1-2)[GalNAc(a1-3)]Gal(b1-4)GlcNAc(b1-2)Man
Method in brief: as §1

[11] = molecular target: Fuc(a1-2)[GalNAc(a1-3)]Gal(b1-4)GlcNAc(b1-2)Man(a1-3)[Fuc(a1-2)[GalNAc(a1-3)]Gal(b1-4)GlcNAc(b1-2)Man(a1-6)]Man(b1-4)GlcNAc(b1-4)GlcNAc
Method in brief: as §1

[12] = molecular target: Fuc(a1-2)[GalNAc(a1-3)]Gal(b1-4)GlcNAc(b1-2)Man(a1-3)[Fuc(a1-2)[GalNAc(a1-3)]Gal(b1-4)GlcNAc(b1-2)Man(a1-6)]Man(b1-4)GlcNAc(b1-4)[Fuc(a1-6)]GlcNAc
Method in brief: as §1

[13] = molecular target: Fuc(a1-2)[GalNAc(a1-3)]Gal(b1-4)GlcNAc(b1-2)Man(a1-3)[GalNAc(a1-3)[Fuc(a1-2)]Gal(b1-4)GlcNAc(b1-2)Man(a1-6)]Man(b1-4)GlcNAc(b1-4)GlcNAc
Method in brief: as §1

[14] = molecular target: Fuc(a1-2)[GalNAc(a1-3)]Gal(b1-4)GlcNAc(b1-3)Gal(b1-4)GlcNAc
Method in brief: as §1

[15] = molecular target: Fuc(a1-2)[GalNAc(a1-3)]Gal(b1-4)GlcNAc(b1-3)Gal(b1-4)GlcNAc(b1-3)Gal(b1-4)GlcNAc
Method in brief: as §1

[16] = molecular target: Fuc(a1-2)[GalNAc(a1-3)]Gal(b1-4)GlcNAc(b1-3)GalNAc
Method in brief: as §1

[17] = molecular target: Fuc(a1-2)[GalNAc(a1-3)]Gal(b1-4)GlcNAc(b1-3)[Fuc(a1-2)[GalNAc(a1-3)]Gal(b1-4)GlcNAc(b1-6)]GalNAc
Method in brief: as §1

[18] = molecular target: Fuc(a1-2)[GalNAc(a1-3)]Gal(b1-4)GlcNAc(b1-6)GalNAc
Method in brief: as §1

[19] = molecular target: Fuc(a1-2)[GalNAc(a1-3)]Gal(b1-4)[Fuc(a1-3)]GlcNAc
Method in brief: as §1

[20] = molecular target: Fuc(a1-2)[GalNAc(a1-3)]Gal(b1-4)[Fuc(a1-3)]GlcNAc(b1-3)GalNAc
Method in brief: as §1

[21] = molecular target: Fuc(a1-2)[GalNAc(a1-4)]Gal(b1-4)GlcNAc
Method in brief: as §1

[22] = molecular target: Fuc(a1-2)[GalNAc(b1-3)]Gal
Method in brief: as §1

Fuc(a1-3)GlcNAc = molecular target: Fuc(a1-3)GlcNAc
Method in brief: as §1

[23] = molecular target: Fuc(a1-3)[Gal(b1-4)]Glc6S
Method in brief: as §1

[24] = molecular target: Fuc(a1-3)[Gal(b1-4)]GlcNAc
Method in brief: as §1

[25] = molecular target: Fuc(a1-3)[Gal(b1-4)]GlcNAc(b1-2)Man
Method in brief: as §1

[26] = molecular target: Fuc(a1-3)[Gal(b1-4)]GlcNAc(b1-2)Man(a1-3)[Fuc(a1-3)[Gal(b1-4)]GlcNAc(b1-2)Man(a1-6)]Man(b1-4)GlcNAc(b1-4)GlcNAc
Method in brief: as §1

[27] = molecular target: Fuc(a1-3)[Gal(b1-4)]GlcNAc(b1-2)Man(a1-3)[Fuc(a1-3)[Gal(b1-4)]GlcNAc(b1-2)Man(a1-6)]Man(b1-4)GlcNAc(b1-4)[Fuc(a1-6)]GlcNAc
Method in brief: as §1

[28] = molecular target: Fuc(a1-3)[Gal(b1-4)]GlcNAc(b1-2)Man(a1-6)[Gal(b1-4)GlcNAc(b1-2)Man(a1-3)]Man(b1-4)GlcNAc(b1-4)GlcNAc
Method in brief: as §1

[29] = molecular target: Fuc(a1-3)[Gal(b1-4)]GlcNAc(b1-3)Gal(b1-3)[Fuc(a1-4)]GlcNAc
Method in brief: as §1

[30] = molecular target: Fuc(a1-3)[Gal(b1-4)]GlcNAc(b1-3)Gal(b1-4)[Fuc(a1-3)]GlcNAc
Method in brief: as §1

[31] = molecular target: Fuc(a1-3)[Gal(b1-4)]GlcNAc(b1-3)Gal(b1-4)[Fuc(a1-3)]GlcNAc(b1-3)Gal(b1-4)[Fuc(a1-3)]GlcNAc
Method in brief: as §1

[32] = molecular target: Fuc(a1-3)[Gal(b1-4)]GlcNAc(b1-3)GalNAc
Method in brief: as §1

[33] = molecular target: Fuc(a1-3)[Gal(b1-4)]GlcNAc(b1-4)Gal(b1-4)[Fuc(a1-3)]GlcNAc
Method in brief: as §1

[34] = molecular target: Fuc(a1-3)[Gal(b1-4)]GlcNAc(b1-4)Gal(b1-4)[Fuc(a1-3)]GlcNAc(b1-4)Gal(b1-4)[Fuc(a1-3)]GlcNAc
Method in brief: as §1

[35] = molecular target: Fuc(a1-3)[Gal(b1-4)]GlcNAc(b1-6)GalNAc
Method in brief: as §1

[36] = molecular target: Fuc(a1-3)[Gal(b1-4)]GlcNAc(b1-6)[Gal(b1-3)GlcNAc(b1-3)]Gal(b1-4)Glc
Method in brief: as §1

[37] = molecular target: Fuc(a1-3)[Gal(b1-4)]GlcNAc6S
Method in brief: as §1

[38] = molecular target: Fuc(a1-3)[Gal3S(b1-4)]Glc
Method in brief: as §1

[39] = molecular target: Fuc(a1-3)[Gal3S(b1-4)]Glc6S
Method in brief: as §1

[40] = molecular target: Fuc(a1-3)[Gal3S(b1-4)]GlcNAc
Method in brief: as §1

[41] = molecular target: Fuc(a1-3)[Gal3S(b1-4)]GlcNAc6S
Method in brief: as §1

[42] = molecular target: Fuc(a1-3)[GalNAc(b1-4)]GlcNAc
Method in brief: as §1

[43] = molecular target: Fuc(a1-3)[GalNAc(b1-4)]GlcNAc6S
Method in brief: as §1

[44] = molecular target: Fuc(a1-3)[Neu5Ac(a2-3)]Gal(b1-4)GlcNAc(b1-3)GalNAc
Method in brief: as §1

B1: HPA (Helix pomatia), Q575S3 (protein)
chain: MWAHLTGLLLICALSLSAAQRAQTGEIDCGSDSSWPKDPSDNPNRDNTREIVKHVTFSPQFCREPKVILSVTTLDAEHTKNLRYEARLKSVSPSGLSASCYSWHDGTIYRMKLSWLAVED
[1]
  glycan array binding signal (z-score): 4.9
[2]
  glycan array binding signal (z-score): 4.46
[3]
  glycan array binding signal (z-score): 3.71
[4]
  glycan array binding signal (z-score): 3.17
[5]
  glycan array binding signal (z-score): 2.11
[6]
  glycan array binding signal (z-score): 2.06
[7]
  glycan array binding signal (z-score): 2.39
[8]
  glycan array binding signal (z-score): 3.04
[9]
  glycan array binding signal (z-score): 3.1
[10]
  glycan array binding signal (z-score): 3.78
[11]
  glycan array binding signal (z-score): 4.18
[12]
  glycan array binding signal (z-score): 2.27
[13]
  glycan array binding signal (z-score): 3.86
[14]
  glycan array binding signal (z-score): 4.44
[15]
  glycan array binding signal (z-score): 4.28
[16]
  glycan array binding signal (z-score): 2.8
[17]
  glycan array binding signal (z-score): 3.69
[18]
  glycan array binding signal (z-score): 2.54
[19]
  glycan array binding signal (z-score): 2.72
[20]
  glycan array binding signal (z-score): -0.215
[21]
  glycan array binding signal (z-score): 5.52
[22]
  glycan array binding signal (z-score): 0.282
Fuc(a1-3)GlcNAc
  glycan array binding signal (z-score): -0.267
[23]
  glycan array binding signal (z-score): -0.25
[24]
  glycan array binding signal (z-score): -0.263
[25]
  glycan array binding signal (z-score): -0.252
[26]
  glycan array binding signal (z-score): -0.262
[27]
  glycan array binding signal (z-score): -0.233
[28]
  glycan array binding signal (z-score): -0.317
[29]
  glycan array binding signal (z-score): -0.258
[30]
  glycan array binding signal (z-score): -0.249
[31]
  glycan array binding signal (z-score): -0.265
[32]
  glycan array binding signal (z-score): -0.239
[33]
  glycan array binding signal (z-score): -0.25
[34]
  glycan array binding signal (z-score): -0.271
[35]
  glycan array binding signal (z-score): -0.209
[36]
  glycan array binding signal (z-score): -0.251
[37]
  glycan array binding signal (z-score): -0.254
[38]
  glycan array binding signal (z-score): -0.25
[39]
  glycan array binding signal (z-score): -0.296
[40]
  glycan array binding signal (z-score): -0.264
[41]
  glycan array binding signal (z-score): -0.249
[42]
  glycan array binding signal (z-score): -0.257
[43]
  glycan array binding signal (z-score): -0.252
[44]
  glycan array binding signal (z-score): -0.247
